Laboratory results as given in PubChem BioAssay AID463173 (ICCB-Longwood Screening Facility, Harvard Medical School, 2010).
About 1,700 (3.3%) of roughly 52,000 compounds were called active. Rule as the data show it: active = survival mostly below about 52% (no sharp cut-off); inactive = mostly above about 56%. The list shows a part of the results.

System: Wild type
Experiment: S. aureus survival, RN4220 and DeltatarO strains – OD600, teichoic acid synthesis inhibitors, primary screen (AID 463173)
Settings: S. aureus RN4220 wild type/DeltatarO growth, OD600, 18 h, stronger effect = lower value, screened at 18.75 µg/mL (by protocol)

Structure (SMILES)	survival
O=C(O)CSC1=NCCN1	inactive: 123%
CCSc1nc(-c2ccccc2OC)nc2c1Cc1c(CO)cnc(C)c1O2	inactive: 89%
Nc1ccc(CN2C(=O)c3ccccc3C2=O)cc1	inactive: 107%
CCOc1ccccc1NC(=O)c1cc(=O)c2ccc(C)cc2o1	inactive: 84%
COc1ccc(NC(=O)CSc2oc(-c3cccs3)nc2S(=O)(=O)c2ccc(C)cc2)c(OC)c1	inactive: 68%
O=C(Cc1cccs1)NC1CC(=O)N(c2cccc(F)c2)C1 (stereo unspecified)	inactive: 78%
COc1cc2nc(NCCC(C)C)n3nc(-c4ccccc4)nc3c2cc1OC	inactive: 69%
CCCCS(=O)(=O)c1oc(-c2cccs2)nc1S(=O)(=O)c1ccccc1	active: 0%
Cc1cc(C)n2c(Nc3ccc(Cl)cc3)c(-c3ccsc3)nc2n1	inactive: 117%
Cn1c(=O)n(C)c2cc(NS(=O)(=O)c3ccc(F)cc3)ccc21	inactive: 82%
COc1cccc(C(=O)Nc2ccc3nc(SCC(=O)N4CCOCC4)sc3c2)c1	inactive: 75%
Cc1ccc(OCC(=O)N(c2ccc(C)cc2)S(=O)(=O)c2ccc(Cl)cc2)cc1	inactive: 66%
Cc1ccc2c(CN3CCN(C(=O)c4ccc(F)cc4)CC3)cc(=O)oc2c1	inactive: 73%
CNc1nnc(-c2ccccc2)s1	inactive: 112%
O=C(CS(=O)(=O)c1cccc2nsnc12)Nc1ccccc1	inactive: 74%
CCOc1ccccc1NC(=O)CSc1nc(=O)[nH]c2c1CCCC2	inactive: 65%
CC(C)(C)c1ccc(C(=O)NCCc2csc3nc(-c4ccccc4F)nn23)cc1	inactive: 71%
CSCCC(NS(=O)(=O)c1ccc2c(c1)oc(=O)n2C)C(=O)N1CCN(c2cc(C)ccc2C)CC1 (stereo unspecified)	inactive: 65%
COc1ccc(C2CC(=O)NC(NC(=O)c3ccc(Br)cc3)=N2)c(OC)c1OC (stereo unspecified)	inactive: 68%
COc1ccccc1CNC(=O)CN1C(=O)COc2ccc(S(=O)(=O)Nc3ccccc3)cc21	inactive: 133%
CN(Cc1ccccc1)C(=O)c1ccc2c(c1)N(Cc1ccccc1F)C(=O)c1ccccc1S2(=O)=O	inactive: 98%
O=C(Nc1cc(-c2nc3ccccc3s2)ccc1Cl)c1cc2ccccc2o1	inactive: 124%
COc1ccc(OC)c(NC(=O)Cn2cnc3ccc(S(=O)(=O)N4CCC(C)CC4)cc3c2=O)c1	inactive: 77%
COc1cc(/C=C/c2nc(C#N)c(N3CCCCCC3)o2)cc(OC)c1OC	inactive: 116%
CN(C(=O)CSc1nc2ccc(NC(=O)COc3ccc(Cl)cc3)cc2s1)c1ccccc1	inactive: 78%
CCCOc1cccc(NC(=O)c2c(-c3ccccc3Cl)noc2C)c1	inactive: 71%
